Changes are numbered by the printed parent chain. Names and notes keep the numbering of the source. No constants are given. Whether binding was seen depends on the method and setting. Binding seen in cells or lysates may run through a third protein. Some entries that bind do so weakly or less than the wild type. Where a sequence is shown, tags or fusion partners need not be part of it. Values belong to the molecule of their own block, whether it stands above or below them.
Experiments:
[1] = target: T1, HA-tagged Dnttip1 (mouse) (UniProt Q99LB0); test: co-IP; FLAG- and HA-tagged proteins co-expressed in HEK293 cells (harvested 24 hrs after transfection); whole cell lysates in MAPK buffer; agarose beads with anti-FLAG or anti-HA antibodies, 4°C, 2.5 hrs
T1 sequence: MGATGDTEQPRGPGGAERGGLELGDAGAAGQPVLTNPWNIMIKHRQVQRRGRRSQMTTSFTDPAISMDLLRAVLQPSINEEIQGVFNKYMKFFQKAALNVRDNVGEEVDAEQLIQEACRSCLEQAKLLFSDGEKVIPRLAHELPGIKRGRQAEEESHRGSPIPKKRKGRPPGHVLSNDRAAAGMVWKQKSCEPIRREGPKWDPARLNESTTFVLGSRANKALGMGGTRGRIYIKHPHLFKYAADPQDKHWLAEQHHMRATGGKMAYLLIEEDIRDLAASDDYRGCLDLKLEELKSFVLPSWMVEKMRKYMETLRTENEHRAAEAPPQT

Chains of the proteins cited; added tags and fusions are not shown.
UniProt Q13547: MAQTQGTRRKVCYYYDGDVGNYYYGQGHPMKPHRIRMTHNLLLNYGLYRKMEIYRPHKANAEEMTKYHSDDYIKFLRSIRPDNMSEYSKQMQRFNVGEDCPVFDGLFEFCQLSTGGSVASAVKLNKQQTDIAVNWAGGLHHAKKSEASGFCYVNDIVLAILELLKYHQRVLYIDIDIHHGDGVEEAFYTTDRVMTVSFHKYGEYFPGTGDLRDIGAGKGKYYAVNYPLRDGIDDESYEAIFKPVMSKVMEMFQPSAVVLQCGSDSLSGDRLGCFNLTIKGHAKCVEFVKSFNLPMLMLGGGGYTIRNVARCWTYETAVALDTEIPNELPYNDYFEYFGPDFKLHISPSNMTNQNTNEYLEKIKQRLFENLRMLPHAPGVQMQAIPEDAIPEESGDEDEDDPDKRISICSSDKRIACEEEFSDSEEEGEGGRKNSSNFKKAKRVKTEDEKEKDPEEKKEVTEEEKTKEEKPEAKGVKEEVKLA

HA-tagged ZNF541 (mouse) = target: T2, HA-tagged ZNF541 (mouse) (UniProt Q0GGX2); test: as above
T2 sequence: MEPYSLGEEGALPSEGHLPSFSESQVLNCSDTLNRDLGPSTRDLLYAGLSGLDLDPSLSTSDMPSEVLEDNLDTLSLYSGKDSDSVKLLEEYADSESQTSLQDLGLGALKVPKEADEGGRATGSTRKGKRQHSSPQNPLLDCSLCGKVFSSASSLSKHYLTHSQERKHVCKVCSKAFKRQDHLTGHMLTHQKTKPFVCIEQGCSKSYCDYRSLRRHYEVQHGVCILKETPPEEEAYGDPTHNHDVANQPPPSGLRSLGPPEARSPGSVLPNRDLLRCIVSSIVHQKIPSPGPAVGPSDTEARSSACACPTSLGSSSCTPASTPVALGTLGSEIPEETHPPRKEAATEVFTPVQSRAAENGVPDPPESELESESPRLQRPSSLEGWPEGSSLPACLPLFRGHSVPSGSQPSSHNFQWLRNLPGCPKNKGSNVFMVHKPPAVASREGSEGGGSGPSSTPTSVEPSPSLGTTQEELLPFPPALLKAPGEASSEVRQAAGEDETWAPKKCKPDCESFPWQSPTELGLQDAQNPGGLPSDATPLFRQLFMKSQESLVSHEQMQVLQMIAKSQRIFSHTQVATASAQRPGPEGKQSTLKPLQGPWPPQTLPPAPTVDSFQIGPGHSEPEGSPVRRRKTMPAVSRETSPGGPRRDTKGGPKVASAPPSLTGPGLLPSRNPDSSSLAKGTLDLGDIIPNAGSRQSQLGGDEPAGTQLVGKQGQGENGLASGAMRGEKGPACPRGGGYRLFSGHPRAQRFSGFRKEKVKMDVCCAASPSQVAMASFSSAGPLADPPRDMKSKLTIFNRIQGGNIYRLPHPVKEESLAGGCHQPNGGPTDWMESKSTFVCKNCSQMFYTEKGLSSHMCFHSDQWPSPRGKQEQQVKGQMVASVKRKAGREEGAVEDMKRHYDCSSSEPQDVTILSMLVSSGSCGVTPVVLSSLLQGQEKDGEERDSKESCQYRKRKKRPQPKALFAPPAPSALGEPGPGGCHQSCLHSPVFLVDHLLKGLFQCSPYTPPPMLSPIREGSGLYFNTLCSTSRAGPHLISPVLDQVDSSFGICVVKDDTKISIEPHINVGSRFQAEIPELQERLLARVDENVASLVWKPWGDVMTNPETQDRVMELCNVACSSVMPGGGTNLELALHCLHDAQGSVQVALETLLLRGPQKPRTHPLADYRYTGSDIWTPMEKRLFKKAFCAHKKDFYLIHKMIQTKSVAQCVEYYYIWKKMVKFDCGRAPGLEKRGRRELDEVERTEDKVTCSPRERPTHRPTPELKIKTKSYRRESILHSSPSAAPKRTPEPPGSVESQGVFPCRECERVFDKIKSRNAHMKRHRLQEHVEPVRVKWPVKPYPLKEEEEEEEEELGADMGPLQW

[2] = target: T3, HA-tagged SAEG-1 (C. elegans) (UniProt Q20733); test: co-IP; FLAG- and HA-tagged proteins co-expressed in Drosophila S2 cells (700 µM copper sulfate, 24 hrs); whole cell lysates in MAPK buffer (10 mM Tris-HCl pH 8.0, 50 mM NaCl, 1 mM EDTA, 1% NP-40); agarose beads with anti-FLAG or anti-HA antibodies, 4°C, 2.5 hrs
T3 sequence: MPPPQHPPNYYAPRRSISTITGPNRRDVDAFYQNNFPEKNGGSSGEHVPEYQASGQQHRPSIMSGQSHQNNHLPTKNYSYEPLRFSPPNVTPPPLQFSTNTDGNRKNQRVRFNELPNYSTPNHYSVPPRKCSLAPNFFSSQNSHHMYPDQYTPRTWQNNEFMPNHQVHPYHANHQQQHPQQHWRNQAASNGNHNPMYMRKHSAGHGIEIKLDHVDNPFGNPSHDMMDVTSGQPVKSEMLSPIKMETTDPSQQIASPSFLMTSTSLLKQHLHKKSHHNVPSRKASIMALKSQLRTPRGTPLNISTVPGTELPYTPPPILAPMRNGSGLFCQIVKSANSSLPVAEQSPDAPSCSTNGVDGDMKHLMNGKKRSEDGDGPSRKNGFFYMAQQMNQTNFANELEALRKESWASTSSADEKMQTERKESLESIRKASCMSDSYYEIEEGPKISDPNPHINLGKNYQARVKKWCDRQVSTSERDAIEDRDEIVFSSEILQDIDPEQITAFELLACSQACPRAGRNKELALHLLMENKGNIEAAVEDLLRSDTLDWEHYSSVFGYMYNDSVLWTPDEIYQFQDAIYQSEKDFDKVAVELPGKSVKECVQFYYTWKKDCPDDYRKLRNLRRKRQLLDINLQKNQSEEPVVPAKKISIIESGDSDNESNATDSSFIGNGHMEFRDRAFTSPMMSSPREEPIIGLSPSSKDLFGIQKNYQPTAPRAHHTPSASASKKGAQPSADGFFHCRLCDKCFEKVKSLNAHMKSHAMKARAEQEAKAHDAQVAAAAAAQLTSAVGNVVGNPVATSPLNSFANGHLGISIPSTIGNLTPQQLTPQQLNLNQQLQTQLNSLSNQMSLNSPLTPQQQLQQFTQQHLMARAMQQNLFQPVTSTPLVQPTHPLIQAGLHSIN

[3] = target: FLAG-tagged SAEG-2 (C. elegans) (UniProt Q03615); test: as above
[4] = target: T4, FLAG-tagged SAEG-2 expressed at the endogenous level in C. elegans (C. elegans) (UniProt Q03615); test: co-IP; lysates of mixed-stage C. elegans grown in liquid culture; FLAG-tagged SAEG-2 expressed at the endogenous level, endogenous EGL-4 detected; wild-type, egl-4(gf) and egl-4(n479) backgrounds
T4 sequence: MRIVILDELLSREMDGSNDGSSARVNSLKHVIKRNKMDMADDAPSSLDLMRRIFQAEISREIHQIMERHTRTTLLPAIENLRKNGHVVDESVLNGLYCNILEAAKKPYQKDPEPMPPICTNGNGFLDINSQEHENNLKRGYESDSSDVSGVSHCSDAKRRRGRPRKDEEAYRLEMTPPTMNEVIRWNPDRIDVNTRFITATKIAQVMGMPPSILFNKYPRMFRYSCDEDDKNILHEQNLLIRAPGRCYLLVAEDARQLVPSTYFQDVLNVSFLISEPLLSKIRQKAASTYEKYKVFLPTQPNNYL

[5] = target: T5, HA-tagged SAEG-2 (C. elegans) (UniProt Q03615); test: co-IP; FLAG- and HA-tagged proteins co-expressed in Drosophila S2 cells (700 µM copper sulfate, 24 hrs); whole cell lysates in MAPK buffer (10 mM Tris-HCl pH 8.0, 50 mM NaCl, 1 mM EDTA, 1% NP-40); agarose beads with anti-FLAG or anti-HA antibodies, 4°C, 2.5 hrs
T5 sequence: T4 sequence

[6] = target: FLAG-tagged Dnttip1 (mouse) (UniProt Q99LB0); test: co-IP; FLAG- and HA-tagged proteins co-expressed in HEK293 cells (harvested 24 hrs after transfection); whole cell lysates in MAPK buffer; agarose beads with anti-FLAG or anti-HA antibodies, 4°C, 2.5 hrs

Molecule: FLAG-tagged HDAC1 (from UniProt Q13547 1-482) (enzyme)
binding [1]: binds
binding (HA-tagged ZNF541 (mouse)): binds

B1: FLAG-tagged SAEG-2 (protein, UniProt Q03615 1-305)
chain: T4 sequence
binding [2]: binds
binding [3]: binds

B4: FLAG-tagged EGL-4(K499A), kinase dead (enzyme, UniProt O76360 1-780)
chain: MSSGSRPSSGGGGGGGGASGGAGGGAPGGGGGGIRGFFSKLRKPSDQPNGNQVQVGTRTFEAHELQKLIPQLEEAISRKDAQLRQQQTIVEGHIKRISELEGEVTTLQRECDKLRSVLEQKAQSAASPGGQPPSPSPRTDQLGNDLQQKAVLPADGVQRAKKIAVSAEPTNFENKPATLQHYNKTVGAKQMIRDAVQKNDFLKQLAKEQIIELVNCMYEMRARAGQWVIQEGEPGDRLFVVAEGELQVSREGALLGKMRAGTVMGELAILYNCTRTASVQALTDVQLWVLDRSVFQMITQRLGMERHSQLMNFLTKVSIFQNLSEDRISKMADVMDQDYYDGGHYIIRQGEKGDAFFVINSGQVKVTQQIEGETEPREIRVLNQGDFFGERALLGEEVRTANIIAQAPGVEVLTLDRESFGKLIGDLESLKKDYGDKERLAQVVREPPSPVKIVDDFREEFAQVTLKNVKRLATLGVGGFGRVELVCVNGDKAKTFALAALKKKHIVDTRQQEHIFAERNIMMETSTDWIVKLYKTFRDQKFVYMLLEVCLGGELWTTLRDRGHFDDYTARFYVACVLEGLEYLHRKNIVYRDLKPENCLLANTGYLKLVDFGFAKKLASGRKTWTFCGTPEYVSPEIILNKGHDQAADYWALGIYICELMLGRPPFQASDPMKTYTLILKGVDALEIPNRRIGKTATALVKKLCRDNPGERLGSGSGGVNDIRKHRWFMGFDWEGLRSRTLKPPILPKVSNPADVTNFDNYPPDNDVPPDEFSGWDEGF
binding [2]: binds
binding [5]: binds

B5: FLAG-tagged EGL-4(K162N), constitutively active (enzyme, UniProt O76360 1-780)
chain: B4 chain with K162N, A499K
binding [2]: binds
binding [5]: binds

B6: FLAG-tagged Dnttip1 (protein, UniProt Q99LB0 1-328)
chain: T1 sequence
binding [6]: binds

More lines, now with the values ahead:

binding [4]: binds
B2: endogenous, constitutively active EGL-4(K162N) from egl-4(gf) animals (enzyme, UniProt O76360 1-780)
chain: B4 chain with K162N, A499K

binding [4]: no binding
B3: endogenous wild-type EGL-4 (basal state) (enzyme, UniProt O76360 1-780)
chain: B4 chain with A499K

Reference: publication PMC3088716
